# Measurements from article PMC4336329 (PLoS ONE, 2015).
# About 14,000 (4.5%) of roughly 310,000 compounds showed an effect of 50% or more. Effects have a minus sign here. The list shows a part of the results.
# Molecular target: human ether-à-go-go-related gene (hERG) potassium channel (human, UniProt Q12809)
# Test: primary screen, population patch clamp on CHO cells stably expressing hERG
# 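Also: peak tail current of the secondary pulse compared with the same well before compound.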
# human ether-à-go-go-related gene (hERG) potassium channel, sequence (Q12809 whole entry, looked up): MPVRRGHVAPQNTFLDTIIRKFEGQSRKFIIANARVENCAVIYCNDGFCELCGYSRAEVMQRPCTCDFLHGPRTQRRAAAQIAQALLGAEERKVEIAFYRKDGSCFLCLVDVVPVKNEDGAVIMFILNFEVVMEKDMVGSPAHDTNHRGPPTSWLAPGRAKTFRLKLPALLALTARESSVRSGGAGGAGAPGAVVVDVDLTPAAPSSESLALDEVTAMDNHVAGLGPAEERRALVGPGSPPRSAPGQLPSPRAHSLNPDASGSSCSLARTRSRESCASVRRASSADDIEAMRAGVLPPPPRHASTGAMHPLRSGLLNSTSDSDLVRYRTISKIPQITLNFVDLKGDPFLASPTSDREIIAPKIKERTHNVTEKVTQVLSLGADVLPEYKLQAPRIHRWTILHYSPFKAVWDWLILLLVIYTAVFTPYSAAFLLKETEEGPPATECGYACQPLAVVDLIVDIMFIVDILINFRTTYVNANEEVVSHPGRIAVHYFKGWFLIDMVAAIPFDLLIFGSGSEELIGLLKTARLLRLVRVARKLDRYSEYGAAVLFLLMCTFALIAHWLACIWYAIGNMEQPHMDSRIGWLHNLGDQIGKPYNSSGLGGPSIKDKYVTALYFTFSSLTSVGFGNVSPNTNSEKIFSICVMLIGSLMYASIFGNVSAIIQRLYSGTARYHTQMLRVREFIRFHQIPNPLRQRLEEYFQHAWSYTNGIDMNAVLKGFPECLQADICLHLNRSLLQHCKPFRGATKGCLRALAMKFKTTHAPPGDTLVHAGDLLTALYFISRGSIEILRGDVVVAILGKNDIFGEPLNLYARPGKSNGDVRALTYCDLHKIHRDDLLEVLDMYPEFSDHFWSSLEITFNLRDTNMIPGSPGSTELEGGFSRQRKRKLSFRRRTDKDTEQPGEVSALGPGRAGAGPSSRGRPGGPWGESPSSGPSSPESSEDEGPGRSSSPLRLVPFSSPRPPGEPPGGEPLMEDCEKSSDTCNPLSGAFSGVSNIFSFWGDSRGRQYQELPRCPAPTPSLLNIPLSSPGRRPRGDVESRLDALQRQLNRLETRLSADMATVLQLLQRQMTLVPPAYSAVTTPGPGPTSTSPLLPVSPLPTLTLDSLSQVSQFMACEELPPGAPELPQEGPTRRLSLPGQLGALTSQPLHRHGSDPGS
row,Structure (SMILES),"hERG current change (%, negative = inhibition) at 10uM [%]"
1,Cc1nnc(N/N=C/c2c[nH]c3ccccc23)[nH]c1=O,11.2
2,CC1=NN(C(=O)c2ccccc2F)C(O)(c2ccc(Cl)cc2)C1 (stereo not shown),7.35
3,NC(=O)NC(=O)COC(=O)c1cccc(NS(=O)(=O)/C=C/c2ccccc2)c1,-1.89
4,COc1ccc(-c2[nH]nc3oc(=O)cc(C)c23)cc1,3.42
5,CC(=O)Nc1ccc(S(=O)(=O)N2CCC(C(=O)N[C@@H](C)C(=O)NC3CCCC3)CC2)cc1,35.3
6,CC(C)NC(=O)c1ccccc1S(=O)c1ccccc1C#N (stereo not shown),9.33
7,COC(=O)c1ccc(C2c3c(oc4ccc(Cl)cc4c3=O)C(=O)N2CCN2CCOCC2)cc1 (stereo not shown),-35.2
8,CCCN1CNC(=S)N(c2cc(C)ccc2C)C1,4.56
9,COc1ccc(N2CCN(C(=O)CCS(=O)(=O)c3ccc(OC)cc3)CC2)cc1,-19.3
10,CCOC(=O)c1c(C)c(C(=O)Nc2ccc3c(c2)OCO3)c(C)n1C,0.63
11,CCN1CCCC1CNC(=O)c1ccc2c(c1)N(Cc1ccccc1F)C(=O)c1ccccc1S2(=O)=O (stereo not shown),-16.7
12,Cc1ccc(S(=O)(=O)NCC2CCC(C(=O)NCCCN3CCCC3=O)CC2)cc1 (stereo not shown),15.8
13,CN(C)S(=O)(=O)N1CCC(Oc2cccc(C(=O)NCCC3=CCCCC3)c2)CC1,-2.44
14,CCOC(=O)C1=C(COC(=O)[C@@H]2CCCN2S(=O)(=O)c2ccc(C)cc2)NC(=O)NC1C (stereo partly shown),6.58
15,CC(C)C(NC(=O)c1ccc(F)cc1)C(=O)NCC1CCCO1 (stereo not shown),5.5
16,Cc1ccc(C(=O)NCC(=O)N/N=C/c2cccs2)cc1[N+](=O)[O-],-6.65
17,Cc1ccc(/C=N/NC(=O)CNC(=O)COc2ccccc2)cc1,0.0545
18,O=C(CN1C(=O)c2ccccc2C1=O)Nc1ccc(S(=O)(=O)NCC2CCCO2)cc1 (stereo not shown),10.7
19,COC(=O)COc1cccc2c(=O)n(CC(=O)NCCc3ccc(OC)c(OC)c3)ccc12,2.88
20,CC1(C)C2CCC1(CS(=O)(=O)NC1CCCC1)C(=O)C2 (stereo not shown),2.14
21,CCCS(=O)(=O)N1CCN(C(=O)c2ccc(-c3ccccc3)cc2)CC1,-30.2
22,CCOc1ccc(C(=O)OCC(=O)Nc2ccc3c(c2)OCCO3)cc1OC,6.78
23,CCOC(=O)c1cc(-c2cccnc2)nn1-c1ccccc1C,-10.5
24,COc1ccccc1N1C(=O)C2C(C(=O)c3ccccc3)=NN(c3ccc(C)cc3)C2C1=O (stereo not shown),-31.9
25,NC(N)=NC(=O)c1nc(Cl)c(N2CCCCCC2)nc1N,-58.6
26,COC(=O)c1cnc(N2CCCN(S(=O)(=O)c3ccccc3)CC2)nc1C(F)(F)F,-8.54
27,CCCCn1c(=O)c(C(=O)Nc2ccccc2C)c(O)c2ccccc21,18.3
28,CCCN(CCC)S(=O)(=O)c1ccc(C(=O)N2CCC(=O)c3ccccc32)cc1,-49.6

row,Structure (SMILES),"hERG current change (%, negative = inhibition) at 10uM [%]"
1,CC(NS(=O)(=O)c1ccc2c(c1)OCCCO2)C(=O)O (stereo not shown),11.5
2,CCOc1ccc(S(=O)(=O)N(CC)CC(=O)NC2CCS(=O)(=O)C2)cc1 (stereo not shown),5.66
3,COc1cccc(CN(C)Cc2nc3cc(C(F)(F)F)ccc3c(=O)[nH]2)c1,-3.19
4,COc1ccc(/C=N/NC(=O)Cn2cnc3ccccc3c2=O)cc1OC,-6.77
5,COc1ccc(/C=N\NC(=O)c2sc(N)nc2C)cc1OC,-1.23
6,N#Cc1c(F)cccc1NCc1cccnc1,23.1
7,COc1ccc(-c2csc(NC(=O)c3cccc(N4C(=O)CCC4=O)c3)n2)cc1OC,-1.68
8,O=C(C1CC1)N1CCc2cc(S(=O)(=O)N3CCCc4ccccc43)ccc21,9.22
9,COc1ccc(S(=O)(=O)N(CC(=O)NCc2cccnc2)Cc2ccccc2)cc1,-76.5
10,CC(=O)Nc1ccc(N2CCC(C)CC2)c([N+](=O)[O-])c1,2.58
11,Cc1ccccc1CCNC(=O)C1CCC(=O)N(C2CCCCCC2)C1 (stereo not shown),-7.44
12,COc1cc(NC(=O)c2ccc(COCC(F)(F)F)o2)cc(OC)c1OC,-16.8
13,CCOc1cc(/C=C/C(=O)c2ccc3c(c2)OCCO3)ccc1OCC(=O)N(C)C,0.478
14,CCOC(=O)CN=C/C(C(=O)Nc1nccs1)=C(/C)O,2.98
15,O=C(Nc1ccc(F)cc1)NC1CCN(Cc2c(F)cccc2Cl)CC1,-11.2
16,CN(C(=O)Nc1ccccc1)C1CCCc2ccccc21 (stereo not shown),-6.21
17,Cc1ccc(C(=O)NCCC2=CCCCC2)cc1S(=O)(=O)N1CCOCC1,-21.2
18,COc1ccc(C(=O)O/N=C(\N)Cc2ccc(Cl)c(Cl)c2)cc1OC,-20.6
19,Cc1ccc(NC(=S)NC2CCSc3ccccc32)cc1 (stereo not shown),16.5
20,Cc1c(C(=O)NCc2ccccn2)oc2ccc(S(=O)(=O)N3CCC4(CC3)OCCO4)cc12,-5.41
21,Cc1cccc(C)c1OCc1nnc(SCC(=O)Nc2nccs2)o1,-12.5
22,CC(C)(C)C(=O)Cn1c(=O)n(-c2ccc(F)cc2F)c(=O)c2sccc21,4.28
23,COc1ccc(C2=NN(C(=O)c3cccnc3)C(c3ccccc3)C2)cc1 (stereo not shown),-5.13
24,COc1ccc(OC)c(C(=O)NC2CC(C)(C)Cc3c2cnn3-c2ccccc2)c1 (stereo not shown),-19.5
25,CC(CCO)Nc1nc2c([nH]1)c(=O)n(C)c(=O)n2C (stereo not shown),10.5
26,Cc1cc(C)cc(NC(=O)C2CCN(S(C)(=O)=O)CC2)c1,-6.86
27,O=C(NCCOc1ccccc1Cl)C(=O)NCCOc1ccccc1Cl,3.16
